# The whole screen tested about 310,000 compounds, of which about 18,000 (5.8%) were called active. The shares of active, inactive and inconclusive entries below differ from those in the screen. Calls follow the shape of the dose curve; as a rule, active = well fitted inhibition curve with a large enough effect; inconclusive = small, poorly fitted or top-dose-only effect, or another doubt; inactive = no such curve, though single readings can be large or run the other way. No potency is given beside an inconclusive call; the fits are too rough.
# Assay: Primary qHTS for delayed death inhibitors of the malarial parasite plastid, 48 hour incubation
# Conditions: P. falciparum luciferase growth in erythrocytes; series mostly up to 28.7 µM; activity change, negative = inhibition: at the top concentration
# Procedure, shortened: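 Luminescence readout; reporter = integrated firefly luciferase in P. falciparum. RBC culture at 2% hematocrit, 0.1% parasitemia final, 37 C/5% CO2; decreased signal taken as growth inhibition.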
# % is scaled to controls: 0 for no effect and ±100 for the full control effect; potency is read from the fitted curve at half-maximal effect; tags tell the direction and shape of the fitted curve.
SMILES,Potency,"activity change, negative = inhibition"
CCCn1c(SCc2ccc(C(=O)OC)o2)nc2ccccc2c1=O,"inconclusive [inhibitor, single point]",
COc1cc(-c2cc(=O)c3c(O)cc(O)cc3o2)ccc1O,"inconclusive [inhibitor, single point]",
COc1cc2nc(/C=C/c3cc(OC)c(OC)c(OC)c3)sc2cc1SC,active: 2.62 µM,
CN(C)CCCN(C(=O)c1cccs1)c1nc(-c2ccccc2)cs1,"inconclusive [inhibitor, single point]",
Cc1ccc(/C=N/n2c(-c3ccco3)n[nH]c2=S)cc1,,inactive: 51.5%
CSc1nc(SCC(N)=O)c2c3c(sc2n1)CN(C)CC3,active: 3.29 µM,
COc1cc2c(cc1OC)[C@H](C)N(C(=O)CSc1nc(O)c(C(C)C)c(=O)[nH]1)CC2,"inconclusive [inhibitor, single point]",
Clc1cccc(Cl)c1Cn1cnc(=NCc2ccco2)c2[nH]cnc21,active: 14.7 µM,
COc1ccc(C(=O)CSc2nc(-c3ccccn3)nc(C)c2Cl)cc1,"inconclusive [inhibitor, single point]",
CC(=O)Nc1ccc(S(=O)(=O)NCCC(=O)OCC(=O)NNC(=O)c2ccccc2)cc1,,inactive: 16.6%
CCOC(=O)N1CCN(C(=O)CSc2cc(C)nc3c(-c4ccccc4OC)c(C)nn23)CC1,active: 4.65 µM,
Cc1ccc(NCc2nnc(SCC(=O)Nc3nnc(C)s3)n2C)cc1,,inactive: 8.6%
Fc1ccc(C2c3cccn3CCN2C(=S)Nc2cccc(Br)c2)cc1 (stereo unspecified),active: 11.7 µM,
Cn1nccc1C(=O)N1CCCC(N2CCN(c3cccc(C(F)(F)F)c3)CC2)C1 (stereo unspecified),,inactive: -23.6%
CCOCCCNC(=S)N1C2CCC1CC(NC(=O)Nc1ccc(C(=O)OCC)cc1)C2 (stereo unspecified),"inconclusive [inhibitor, partial curve]",
COc1ccc2c3n(nc2c1)CCN=C3c1ccc(C)cc1,,inactive: 0.0187%
CCOC(=O)C1=C(C)Nc2ccccc2N=C1NC(=O)c1ccc(Cl)c(S(=O)(=O)N2CCCC2)c1,"inconclusive [inhibitor, single point]",
COc1cc2c(cc1OC)C(c1cccs1)N(C(=O)C(C)C)CC2 (stereo unspecified),"inconclusive [inhibitor, partial curve]",
COc1ccccc1/C=C1\SC(=S)N(CCC(=O)NCCCN2CCOCC2)C1=O,,inactive: -23.8%
CCOC(=O)Cc1csc(NC(=O)Nc2cccc(Cl)c2)n1,,inactive: 12.1%
Cc1cc(=O)oc2cc3c(cc12)CCCN3,,inactive: 58.9%
COc1ccc(-c2noc(N3CCC(C(=O)Nc4cc(OC)c(OC)c(OC)c4)CC3)n2)cc1,"inconclusive [inhibitor, partial curve, poor fit]",
O=C(Nc1cccc(Br)c1)c1cc(S(=O)(=O)N2CCOCC2)cs1,"inconclusive [inhibitor, partial curve]",
Cc1ccc(-c2cc(C(=O)N/N=C/c3c(C)nn(-c4ccccc4)c3C)n[nH]2)s1,"inconclusive [inhibitor, partial curve, poor fit]",

SMILES,Potency,"activity change, negative = inhibition"
C=CCn1c(SCC(=O)Nc2ncc(Cc3ccc(C)c(Cl)c3)s2)nnc1-c1ccncc1,,inactive: 1.71%
Cc1nn(-c2ccccc2)c(C)c1C(=O)OCC(=O)Nc1cccc(S(N)(=O)=O)c1,"inconclusive [inhibitor, single point]",
O=C(O)C1CCCCN1C(=O)c1cc2c(s1)CCCCC2 (stereo unspecified),,inactive: 1.67%
CCC(=O)N1CCCc2cc(S(=O)(=O)N3CCN(c4ccccn4)CC3)ccc21,"inconclusive [inhibitor, single point]",
S=c1[nH]nc(COc2ccccc2)n1/N=C/C=C/c1ccccc1,,inactive: 5.64%
CCc1cccc(CC)c1NC(=O)COC(=O)CC1c2ccccc2CCN1S(=O)(=O)c1ccc(F)cc1 (stereo unspecified),"inconclusive [inhibitor, partial curve, poor fit]",
N#CC1=C(N)N(c2ccccc2C#N)C2=C(C(=O)CCC2)C1c1ccsc1 (stereo unspecified),"inconclusive [inhibitor, partial curve]",
Cc1cccc2sc(N(CCCN(C)C)C(=O)c3ccc(Cl)s3)nc12,"inconclusive [inhibitor, single point]",
O=C(CSc1nnc(SCc2ccc(Cl)cc2)s1)N/N=C/c1c(Cl)cccc1Cl,"inconclusive [inhibitor, single point]",
c1ccc(C[C@H]2CNCCN2CCc2cccc3ccccc23)cc1,"inconclusive [inhibitor, single point]",
C[n+]1c(-c2ccccc2)cc(-c2ccc(O)cc2)cc1-c1ccccc1,"inconclusive [inhibitor, full curve]",
CN(C)Cc1c(O)ccc2ccccc12,"inconclusive [inhibitor, single point]",
COc1ccccc1NC(=S)N=Nc1c(O)[nH]c2ccc(Br)cc12,active: 0.928 µM,
COc1ccc(CCN2CC(C(=O)NCCc3cn[nH]c3)CCC2=O)cc1 (stereo unspecified),,inactive: 19.4%
O=C(NCc1ccccn1)c1cccc(S(=O)(=O)Nc2ccccc2Cl)c1,"inconclusive [inhibitor, single point]",
COc1ccc(C(C(C(=O)c2ccco2)N2CCOCC2)N2CCOCC2)cc1 (stereo unspecified),,inactive: 15.9%
O=C1CC(NS(=O)(=O)c2cccs2)CN1c1ccc(Cl)cc1 (stereo unspecified),"inconclusive [inhibitor, single point]",
Cc1cc(F)ccc1NCc1ccccc1[N+](=O)[O-],"inconclusive [inhibitor, single point]",
Oc1ccc(Cl)cc1CNc1ccc(Br)cn1,"inconclusive [inhibitor, single point]",
COc1cccc(C2CC(c3c(Cl)cccc3Cl)n3nc(N)nc3N2)c1 (stereo unspecified),"inconclusive [inhibitor, partial curve]",
COc1cc2cc(C(=O)N3CCN(Cc4ccc5c(c4)OCO5)CC3)[nH]c2cc1OC,"inconclusive [inhibitor, partial curve, poor fit]",
Cc1nccc(-c2cccc(N/N=C(\C#N)C(=O)c3ccccc3)c2)n1,active: 13.1 µM,
Cn1nc(C(F)(F)F)c(-c2ccc(Br)cc2)c1NC(=O)c1nccnc1C(=O)O,,inactive: 14.5%
Cc1cc(Br)ccc1SCC(=O)OC/C(O)=C(\C#N)c1nc2ccccc2[nH]1,,inactive: -0.593%

SMILES,Potency,"activity change, negative = inhibition"
O=C(Nc1ccc(Oc2cccnc2)cc1)c1ccc([N+](=O)[O-])cc1,"inconclusive [inhibitor, partial curve, poor fit]",
CCN(CC)CCCNC(=O)CSc1c2c(nc3cc(Cl)ccc13)CCCC2,"inconclusive [inhibitor, partial curve, poor fit]",
Cc1cc(C)c(S(C)(=O)=O)c(Oc2cccc(Cl)c2)n1,"inconclusive [inhibitor, partial curve, poor fit]",
COc1ccc(CCN2CCCC(CN(C)C(=O)c3ccoc3C)C2)cc1 (stereo unspecified),,inactive: -7.15%
CC(C)C[C@H](NC(=O)NC1CCCc2ccccc21)C(=O)O (stereo partly specified),active: 2.33 µM,
O=C(NCc1ccco1)c1ccc(Cn2c(=S)[nH]c3ccccc3c2=O)cc1,"inconclusive [inhibitor, single point]",
COc1ccc(S(=O)(=O)N2CCOCC2)cc1NC(=O)CC1CC2CCC1C2 (stereo unspecified),"inconclusive [inhibitor, single point]",
Cc1ccc(NC(=O)/C(=C\c2ccco2)NC(=O)c2ccco2)cc1,,inactive: 9.11%
Cc1ccccc1NC(=O)C1CCCN(S(=O)(=O)c2ccc3c(c2)C(C)(C)C(=O)N3C)C1 (stereo unspecified),"inconclusive [inhibitor, partial curve]",
N=C(N)SCc1ncccc1O,,inactive: 29.3%
Cc1ccc(S(=O)(=O)N2CCN(CCOc3cccc(C)c3)CC2)cc1,"inconclusive [inhibitor, single point]",
O=[N+]([O-])c1ccc(N2N=C(c3ccco3)CC2c2ccccc2)cc1 (stereo unspecified),"inconclusive [inhibitor, single point]",
COc1ccccc1N1CCN(C(=O)c2cccc(N3C(=O)C4C5C=CC(C5)C4C3=O)c2)CC1 (stereo unspecified),"inconclusive [inhibitor, partial curve, poor fit]",
CSC1=NC(=O)/C(=C/c2ccc(SC)cc2)S1,,inactive: 212%
Nc1ccc(C(=O)Oc2ccc([N+](=O)[O-])cc2)c(O)c1,,inactive: 4.75%
CCC(c1ccccc1)c1nc(-c2ccccn2)no1 (stereo unspecified),,inactive: 17.4%
COc1ccccc1N1CCN(C(=O)c2ccc(S(=O)(=O)N3CCCCC3)cc2)CC1,"inconclusive [inhibitor, partial curve]",
COc1cccc(C(c2nnnn2CC2CCCO2)N2CCN(C(=O)c3ccco3)CC2)c1OC (stereo unspecified),"inconclusive [inhibitor, single point]",
Oc1cc(OCc2ccccc2)ccc1-c1[nH]ncc1-c1ccccc1,"inconclusive [inhibitor, full curve]",
COc1ccc(S(=O)(=O)N2CCCCC2)cc1C(C)C,"inconclusive [inhibitor, single point]",
COc1ccc(S(=O)(=O)N2CCCC2CNC(=O)C(=O)NCc2cccs2)cc1 (stereo unspecified),"inconclusive [inhibitor, partial curve, poor fit]",
Cc1ccc(-c2nn(-c3ccccc3)cc2C(=O)NCCCN2CCCC2=O)cc1,"inconclusive [inhibitor, single point]",
Cc1cc(OCCCC(=O)NCCN2C(=O)S/C(=C\c3cccnc3)C2=O)ccc1Cl,"inconclusive [inhibitor, partial curve, poor fit]",

# Source: PubChem BioAssay AID504832 (National Center for Advancing Translational Sciences (NCATS), 2011)
